In all, about 310,000 compounds went through this assay and about 2,200 (0.71%) showed an effect of 50% or more. Effects have a minus sign here. Some of the results follow.
Each compound was assayed against human ether-à-go-go-related gene (hERG) potassium channel (human, UniProt Q12809) (assay: primary screen, population patch clamp on CHO cells stably expressing hERG).
Sequence of human ether-à-go-go-related gene (hERG) potassium channel (Q12809 whole entry, looked up): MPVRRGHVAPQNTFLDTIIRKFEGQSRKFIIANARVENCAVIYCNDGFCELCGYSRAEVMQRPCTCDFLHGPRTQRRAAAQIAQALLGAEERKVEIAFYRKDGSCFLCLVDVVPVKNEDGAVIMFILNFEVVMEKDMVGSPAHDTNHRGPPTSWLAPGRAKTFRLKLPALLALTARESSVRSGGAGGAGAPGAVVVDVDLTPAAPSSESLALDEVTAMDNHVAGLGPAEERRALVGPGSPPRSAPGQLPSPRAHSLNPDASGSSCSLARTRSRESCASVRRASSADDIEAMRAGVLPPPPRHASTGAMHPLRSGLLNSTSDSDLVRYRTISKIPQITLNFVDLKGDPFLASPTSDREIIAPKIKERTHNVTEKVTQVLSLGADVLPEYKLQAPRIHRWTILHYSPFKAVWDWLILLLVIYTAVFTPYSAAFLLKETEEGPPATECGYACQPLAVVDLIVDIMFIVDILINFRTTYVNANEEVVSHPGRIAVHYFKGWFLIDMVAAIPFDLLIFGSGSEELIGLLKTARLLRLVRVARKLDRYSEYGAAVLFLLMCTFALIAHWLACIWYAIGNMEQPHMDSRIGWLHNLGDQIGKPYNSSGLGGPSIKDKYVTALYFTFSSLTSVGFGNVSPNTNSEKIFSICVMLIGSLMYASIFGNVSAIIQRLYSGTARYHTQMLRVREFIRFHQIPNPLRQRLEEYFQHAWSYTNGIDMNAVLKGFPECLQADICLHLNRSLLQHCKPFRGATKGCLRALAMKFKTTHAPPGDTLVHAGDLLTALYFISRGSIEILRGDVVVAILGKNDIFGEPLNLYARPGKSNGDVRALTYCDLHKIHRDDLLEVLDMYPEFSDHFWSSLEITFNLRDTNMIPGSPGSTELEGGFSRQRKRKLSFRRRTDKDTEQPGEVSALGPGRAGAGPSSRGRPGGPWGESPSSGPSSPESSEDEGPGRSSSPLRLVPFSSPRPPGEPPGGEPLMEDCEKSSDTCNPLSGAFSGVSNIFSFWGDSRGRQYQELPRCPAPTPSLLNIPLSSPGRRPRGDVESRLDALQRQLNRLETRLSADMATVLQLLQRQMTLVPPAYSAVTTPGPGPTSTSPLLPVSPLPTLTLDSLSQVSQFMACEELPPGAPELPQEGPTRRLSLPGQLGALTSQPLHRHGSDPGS

SMILES	hERG current change (%, negative = inhibition) at 1uM
NS(=O)(=O)c1ccc(NC(=S)N2CCN(c3ccc(Cl)c(Cl)c3)CC2)cc1	14.8%
CC(=O)Nc1ccc(-c2nc3cc(Cl)ccc3o2)cc1	16.4%
CCN1C(=O)[C@H]2[C@@H](c3ccc(-c4ccccc4)cc3)N[C@@](C)(C(=O)OC)[C@H]2C1=O.O=C(O)C(F)(F)F	11.4%
Cc1cccc2c(CC(=O)Nc3ccccc3)noc12	3.24%
Cc1nn(CC(=O)NCc2ccc(-n3cccn3)cc2)c(C)c1[N+](=O)[O-]	6.37%
CN1CC(=O)N=C1N	7.78%
CCS(=O)(=O)N1Cc2ccccc2CC1C(=O)NCC12CC3CC(CC(C3)C1)C2 (stereo not shown)	0.461%
Cc1cccc(NC(=O)CCN2CCOCC2)c1	12.5%
COc1ccccc1C(=O)Nc1nc2ccccc2s1	21%
O=C(CN1CCCCCC1)Nc1ccccc1F.O=C(O)C(=O)O	14%
COc1ccc(N2C(=O)C(OC(C)=O)C2c2ccc(C)cc2)cc1 (stereo not shown)	7.38%
CC(=NC1CC1)c1c(-c2ccccc2)[nH]n(-c2nc3ccccc3s2)c1=O	8.29%
CC(=O)Nc1cccc(NC(=O)CSc2nc(=O)n(CCN3CCOCC3)c3c2CCC3)c1	5.13%
CCN1CCN(c2ccc(NC(=O)COc3ccccc3Cl)cc2)CC1	-6.66%
COc1ccc(-c2noc(CN3CCCCC3c3nccn3C)n2)cc1 (stereo not shown)	1.84%
CC(C)N(C)S(=O)(=O)c1ccc(Cl)c(C(=O)O)c1	6.85%
CCc1ccc2oc(-c3cc(N=Cc4cccc(OC)c4O)ccc3O)nc2c1	19.3%
CC(C)NCc1nnc(-c2ccc(Cl)cc2)o1	13.9%
Cc1cc(/C=N/NC(=O)CC#N)c(C)n1-c1ccc([N+](=O)[O-])cc1	0.927%
CC(CC(=O)Nc1ccncc1)c1ccccc1 (stereo not shown)	5.15%

SMILES	hERG current change (%, negative = inhibition) at 1uM
CC(=O)c1cccc(NS(=O)(=O)c2cc3c(cc2C)N(C(C)=O)CCO3)c1	14.5%
N#CC(c1ccccn1)c1ncc(C(F)(F)F)cc1Cl (stereo not shown)	16.6%
Cc1ncsc1CCSc1nc2ccccc2c(=O)n1C	-0.588%
CCOC(=O)c1sc(C)c2c1NC(c1ccc(Cl)cc1)NC2=O (stereo not shown)	-4.42%
COc1ccc(S(=O)(=O)N2CCCC(C(=O)N3CCCC3)C2)cc1OC (stereo not shown)	10.1%
Cn1c(=O)[nH]c2ncccc21	9.74%
C=C(C)n1c(=O)n(Cc2ccc(C)cc2)c2ccccc21	11.3%
CCc1cc2c3c(c(=O)oc2cc1OC)CCCC3	6.21%
O=C(O)/C=C\c1ccccc1Oc1ccc(F)cc1	18.7%
Cc1ccc(-n2nnc3ccccc3c2=O)cc1C	6.54%
Cc1ccccc1C(=O)N1CCC(C(=O)Nc2sccc2C(N)=O)CC1	0.801%
COc1cccc(-c2nc(-c3ccccn3)no2)c1	9.1%
COc1cccc(/C=C2/Sc3ccc(C(=O)NCCN4CCCC4)cc3NC2=O)c1	-6.49%
CCc1ccc(C(=O)NNC(=O)CC2OC(=O)c3ccccc32)cc1 (stereo not shown)	6.44%
Cc1ccc2[nH]c(=O)c(CN(CCc3ccccc3)Cc3nnnn3CC3CCCO3)cc2c1 (stereo not shown)	7.26%
Cc1ccc(-n2c(C)c(C)c3c(NCCCO)ncnc32)cc1	6.21%
CCN(CC(=O)NCc1ccc(F)cc1)C(=O)c1oc2ccccc2c1C	-0.0994%
CCOC(=O)c1c[nH]c2c3c(ccc2c1=O)CCCC3	11%
COC(=O)[C@@H](NC(=O)c1ccc2c(c1)S(=O)(=O)c1ccccc1C2=O)C(C)C	19.3%
COCc1ccc(CN2CCCCC2C(=O)Nc2ccc(Oc3ccccc3)nc2)o1 (stereo not shown)	10.6%

SMILES	hERG current change (%, negative = inhibition) at 1uM
CCN(CC(=O)NC(C)C)C(=O)c1ccc(Cl)cc1	7.7%
CC(C)c1ccc(NC(=O)COc2ccc(S(=O)(=O)N3CCOCC3)cc2)cc1	5.72%
O=C(Nc1nnc(-c2ccccc2)s1)c1ccccc1F	13.3%
CCc1cc(=O)oc2c(CN3CCN(C)CC3)c(O)ccc12	13%
CC1=Nc2cc(C(=O)N3CCCCC3)ccc2Sc2ccc(C)cc21	-23%
COc1ccc(S(=O)(=O)N2CCCCC2)cc1NC(=O)c1ccc(Cl)nc1	4.95%
Cc1ccc(/C=C/C(=O)Oc2ccc(C#N)cc2)o1	11.9%
N#Cc1nc(-c2ccccc2)oc1NCc1ccco1	8.76%
CCCCCc1cc(=O)oc2c(C(CCN(CC)CC)c3ccc(OC)cc3)c(OC)cc(OC)c12 (stereo not shown)	4.29%
Cc1ccc(C)c(OCC(=O)NCC(c2ccco2)N2CCCCC2)c1 (stereo not shown)	9.48%
O=C(COC(=O)c1cccs1)Nc1ccccc1[N+](=O)[O-]	-6.77%
CCCNC(=O)Cn1cnc2sc(C(=O)N3CCCC(C(=O)OCC)C3)c(C)c2c1=O (stereo not shown)	13.6%
CCSc1nnc2c(n1)OC(C)(C)Nc1ccccc1-2	14.2%
Cc1ccc(/C=C2\SC(N)=NC2=O)s1	12.7%
Cc1cc(C)cc(N2C(=O)C3NN=C(C(=O)OCc4ccccc4)C3C2=O)c1 (stereo not shown)	-11.4%
COCCn1c(=NC(=O)c2ccc(S(=O)(=O)N3CCCc4ccccc43)cc2)sc2cc(S(C)(=O)=O)ccc21	5.7%
O=C(O)CN1C(=O)/C(=C\c2cc(Br)ccc2OCc2ccc(Cl)cc2)SC1=S	10.4%
CC(C)(C)c1nnc(NC(=O)CCn2cnc3ccccc3c2=O)s1	10.4%
